Measured values taken from PubChem BioAssay AID1159614 (National Center for Advancing Translational Sciences (NCATS), 2016).
Among all 45,000 compounds or so, about 65 (0.1%) were called active. Calls come from the whole dose curve; as a rule, active = well fitted activation curve with a large enough effect; inconclusive = small, poorly fitted or top-dose-only effect; inactive = no such curve, though single readings can be large or run the other way. The list shows a part of the results.

These compounds were tested against Galactocerebrosidase (Homo sapiens) (UniProt P54803) (assay: A Novel Cell-Based Assay to Identify Small Molecules for B -Galactocerebrosidase). Conditions: 145M-Twi-hGALC-G270D cells (Twitcher mouse brain line with human GALC G270D), HMU-beta-Gal fluorescence, 48 h; activation: at the top concentration.
UniProt P54803, sequence (P54803 whole entry, looked up): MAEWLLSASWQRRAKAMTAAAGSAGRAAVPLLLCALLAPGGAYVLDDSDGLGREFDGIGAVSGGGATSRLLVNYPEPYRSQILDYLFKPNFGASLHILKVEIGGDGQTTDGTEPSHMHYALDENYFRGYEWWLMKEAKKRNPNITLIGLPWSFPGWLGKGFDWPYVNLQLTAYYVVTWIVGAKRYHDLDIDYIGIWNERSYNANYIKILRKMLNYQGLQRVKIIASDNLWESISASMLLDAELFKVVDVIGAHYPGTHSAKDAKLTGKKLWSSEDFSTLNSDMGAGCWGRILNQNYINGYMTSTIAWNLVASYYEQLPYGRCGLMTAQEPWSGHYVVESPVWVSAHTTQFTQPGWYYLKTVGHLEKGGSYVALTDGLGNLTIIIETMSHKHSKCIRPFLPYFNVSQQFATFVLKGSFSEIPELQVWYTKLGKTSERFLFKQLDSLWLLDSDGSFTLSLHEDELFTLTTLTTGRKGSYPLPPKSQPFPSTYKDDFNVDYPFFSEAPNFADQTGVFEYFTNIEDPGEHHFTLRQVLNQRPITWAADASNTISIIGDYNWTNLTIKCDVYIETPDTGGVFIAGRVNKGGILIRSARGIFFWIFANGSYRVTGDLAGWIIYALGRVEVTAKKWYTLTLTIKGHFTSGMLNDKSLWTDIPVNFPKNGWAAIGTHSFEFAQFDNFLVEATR
Outline: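 Mutant human GALC (G270D), stably expressed in a Twitcher mouse brain cell line lacking endogenous GALC, is measured in live-treated cells via 6-hexadecanoylamino-4-methylumbelliferyl-β-galactoside hydrolysis (0.1 mM final, pH 5.2) with fluorescent detection.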
Note: 0% is about no effect; nearly all actives have a fitted effect of over 65% in size.

Compound	activation
CC(CC(C#N)(c1ccccc1)c1ccccc1)N(C)C (stereo unspecified)	inactive: -8.31% [at 114 µM]
COP(=O)(OC)C(O)C(Cl)(Cl)Cl (stereo unspecified)	inactive: -14.5%
COc1ccc(OC)c(CCNCc2c(C(=O)O)c(C)n(Cc3ccc(F)cc3Cl)c2C)c1	inactive: -10.4%
CN1CCC(N(Cc2ccccc2)c2ccccc2)CC1	inactive: -4.22%
O=C1NCN(c2ccccc2)C12CCN(CCCOc1ccc(F)cc1)CC2	inactive: -10.5%
CCCC1=Nc2cc(C(=O)NCCc3ccc(OC)cc3OC)ccc2Sc2ccccc21	inactive: -32.2%
Cc1cc(OCC(=O)N2CCN(CCc3ccncc3)CC2)cc(C)c1Cl	inactive: -17.7%
COc1ccc(NC(=O)CCc2nc(C3=CCN(Cc4cccc(C)c4)CC3)no2)c(OC)c1	inactive: -12.9%
CN1C[C@H](CNC(=O)OCc2ccccc2)C[C@@H]2c3cccc4c3c(cn4C)C[C@H]21	inactive: -8.52%
Cc1cccc(-n2c(/C=C\c3cccc(Br)c3)nc3ccccc3c2=O)c1	inactive: -22.3%
CCCCCCCCCCCCCCCC[N+](C)(C)C	inactive: -16.1%
CCCCCCCCCC(=O)O[C@H]1CC[C@H]2[C@@H]3CCC4=CC(=O)CC[C@@H]4[C@H]3CC[C@]12C	inactive: -7.27%
CCN[C@H](C)Cc1cccc(C(F)(F)F)c1	inactive: -2.91% [at 114 µM]
COc1ccc(C2CC(=O)Oc3c2c(=O)oc2ccccc32)c(OC)c1OC (stereo unspecified)	inactive: -17.1%
Cc1ccc(Cn2cccc(C(=O)Nc3ccc(C)c(Cl)c3)c2=O)cc1	inactive: -23.1%
Cc1ccc(CNC(=O)CCCn2c(=O)c3sccc3n(CC(=O)Nc3c(C)cccc3C)c2=O)cc1	inactive: -5.43%
CC#C[C@]1(O)CC[C@H]2[C@@H]3C[C@H](C)C4=CC(=O)CC[C@]4(C)[C@H]3CC[C@@]21C	inactive: -20.6%
Clc1ccc(COC(Cn2ccnc2)c2ccc(Cl)cc2Cl)cc1 (stereo unspecified)	inactive: 1.68%
CC(C)c1cccc(C(C)C)c1O	inactive: 0.141%
Cc1nnc(NC(=O)c2cccn(Cc3ccccc3)c2=O)s1	inactive: -20.7%
Cc1cccc(OC(C)C(=O)NCC2(N(C)C)CCCCC2)c1C (stereo unspecified)	inactive: -16.6%
CN(C)CCc1c[nH]c2ccccc12	inactive: -7.92% [at 129 µM]

Compound	activation
CC(Cc1ccccc1)N(C)Cc1ccco1 (stereo unspecified)	inactive: -14.6%
O=C(Nc1nc2ccccc2s1)c1cccn(Cc2ccccc2)c1=O	inactive: -3.61%
CC[N+]1(C)CCCC(OC(=O)C(O)(c2ccccc2)c2ccccc2)C1 (stereo unspecified)	inactive: -16.6%
CCCc1nc(SC)ncc1C(=O)Nc1ccc(Cl)cc1C(=O)c1ccccc1	inactive: -9.82%
O=C(Nc1ccc(Br)cc1)c1ccc(Cl)c(S(=O)(=O)N2CCCCCC2)c1	inactive: -20%
Cc1nnc2n1-c1sc(CCC(=O)N3CCOCC3)cc1C(c1ccccc1Cl)=NC2	inactive: -8.68%
Nc1ccc([N+](=O)[O-])cc1	inactive: -7.8% [at 114 µM]
CCOc1ccc(CN(CCc2ccc3c(c2)OCO3)Cc2cccc(Br)c2)cc1	inactive: 6.78%
c1ccc2c(c1)OCC(C1=NCCN1)O2 (stereo unspecified)	inactive: -6.97%
O=C(COc1ccccc1Cl)N1CCN(CCc2ccccn2)CC1	inactive: -16.6%
C[C@]12CC[C@H](O)CC1=CC[C@@H]1[C@@H]2CC[C@]2(C)C(=O)CC[C@@H]12	inactive: -6.64%
CC(Cc1ccccc1)NCc1ccccc1Cl (stereo unspecified)	inactive: -9.95%
CN1C(=O)CN=C(c2ccccc2)c2cc(Cl)ccc21	inactive: -8.59%
Cc1ccccc1-n1nc(C)c2c1NC(=O)CSC2c1ccccc1C(F)(F)F (stereo unspecified)	inactive: -10.4%
c1ccc(CN2CCNCC2)cc1	inactive: -7.89% [at 273 µM]
COc1ccccc1CN1CCN(C(=O)COc2cccc(C)c2)CC1	inactive: -24%
COc1ccc(NC(=O)CN2C(=O)CN=C(c3ccccc3)c3ccccc32)c(OC)c1	inactive: -32%
CC[C@@H](CO)NC(=O)[C@@H]1C=C2c3cccc4c3c(cn4C)C[C@H]2N(C)C1	inactive: -6.52%
CCOc1ccc(CN(CCc2ccc3c(c2)OCO3)Cc2ccc(CC)cc2)cc1	inactive: -2.6%
CC(C)OP(=O)(CP(=O)(OC(C)C)OC(C)C)OC(C)C	inactive: -11.9%
COP(=S)(OC)Oc1ccc(S(=O)(=O)N(C)C)cc1	inactive: -17.2%
CCc1ccc(NC(=O)Cn2c(=O)oc3cc(S(=O)(=O)NCc4ccccc4)ccc32)cc1	inactive: -43.5% [at 11.5 µM]

Compound	activation
COc1ccc2c(c1OC)CN1CCc3cc4c(cc3C1C2)OCO4 (stereo unspecified)	inactive: -21.3%
CCOC(=O)c1ccc(N2C(=O)c3n[nH]c(-c4cccs4)c3C2c2ccc(OC)cc2OC)cc1 (stereo unspecified)	inactive: -30.6%
C[CH2][Hg][S]c1ccccc1C(=O)O	inactive: -20.6%
CCn1c(CN2CCN(C)CC2)nc2ccccc21	inactive: -13.3%
CC(=O)C1CCOC1=O (stereo unspecified)	inactive: -15.3%
O=C(Nc1ccc(OC(F)(F)F)cc1)c1cccn(Cc2ccccc2Cl)c1=O	inactive: -9.72%
O=C(c1ccc2c(c1)N(Cc1c(F)cccc1Cl)C(=O)c1ccccc1S2)N1CCC2(CC1)OCCO2	inactive: -12.6%
C[C@H]1O[C@@H](O[C@H]2[C@@H](O)C[C@H](O[C@H]3[C@@H](O)C[C@H](O[C@H]4CC[C@@]5(C)[C@H](CC[C@@H]6[C@@H]5CC[C@]5(C)[C@@H](C7=CC(=O)OC7)CC[C@]65O)C4)O[C@@H]3C)O[C@@H]2C)C[C@H](O)[C@@H]1O	inactive: -6.8%
Cc1ccc(C)c(CN2C(=O)c3ccccc3Sc3ccc(C(=O)N4CCC5(CC4)OCCO5)cc32)c1	inactive: -6.59%
Cc1cccc(CN2C(=O)CN=C(c3ccccc3Cl)c3cc(Cl)ccc32)c1	inactive: -8.31%
CN1C(=O)c2ccccc2Sc2ccc(NC(=O)NCc3ccc(Cl)cc3)cc21	inactive: -37.7%
O=c1[nH]oc2c1CCNC2	inactive: -11.3%
C[C@]12CC[C@H]3[C@@H](CCC4=CC(=O)CC[C@@]43C)[C@@H]1CC[C@@H]2C(=O)CO	inactive: -10.9%
CN1[C@@H]2CC[C@H]1CC(OC(=O)c1cc(Cl)cc(Cl)c1)C2 (stereo partly specified)	inactive: -12.7%
CCOC(C(=O)OCCN(C)C)(c1ccccc1)c1ccccc1	inactive: -10%
C[C@H](N)C(=O)c1ccccc1	inactive: 7.02% [at 129 µM]
Cc1ccc2scc(N3CCN(C)CC3)c(=O)c2c1	inactive: -4.45%
C[C@@H]1C[C@@H]([C@H](O)CC2CC(=O)NC(=O)C2)C(=O)[C@@H](C)C1	inactive: -17.2%
Cc1ccc(-n2c(/C=C/c3ccccc3)nc3ccccc3c2=O)cc1C	inactive: -9.56%
O=C(O)C(Cl)Cl	inactive: -14%
Nc1ccccc1C(=O)OCC(O)CO (stereo unspecified)	inactive: -21.7%
O=C(O)c1nn(Cc2ccc(Cl)cc2Cl)c2ccccc12	inactive: -6.45%

Compound	activation
CC(=O)c1ccc(NC(=O)c2sc3nc4c(cc3c2N)N2CCC4CC2)cc1	inactive: -8.62%
Cc1ccc(-n2c(/C=C/c3cccc(C(F)(F)F)c3)nc3ccccc3c2=O)cc1	inactive: -4.01%
NC(=O)c1ccc(NC(=O)c2cccn(Cc3ccccc3)c2=O)cc1	inactive: -13%
Cc1c(C(c2ccc(O)cc2)c2c(O)c3ccccc3oc2=O)c(=O)n(-c2ccccc2)n1C (stereo unspecified)	inactive: -13.5%
CCOc1ccc(CN2C(=O)c3ccccc3Sc3ccc(C(=O)N4CCC5(CC4)OCCO5)cc32)cc1	inactive: -11.3%
CC[C@@H](CO)NC(=O)[C@@H]1C=C2c3cccc4[nH]cc(c34)C[C@H]2N(C)C1	inactive: -7.56%
CCSc1nnc(NC(=O)c2cccn(Cc3ccc(Cl)cc3)c2=O)s1	inactive: -23%
CCC1(C2=NCCN2)Cc2ccccc2O1 (stereo unspecified)	inactive: -11%
Cc1cccc(-n2c(/C=C/c3cccc4ccccc34)nc3ccccc3c2=O)c1	inactive: 0.217%
O=c1c2ccccc2nc(/C=C\c2cccc(Br)c2)n1-c1ccc(O)cc1	inactive: -10.5%
COc1ccc(NC(=O)c2cccn(Cc3ccc(Cl)cc3)c2=O)c(OC)c1	inactive: -32.1%
CNC(=O)Oc1cccc2ccccc12	inactive: -9.6%
CCOC(=O)c1cncn1C(C)c1ccccc1 (stereo unspecified)	inactive: -9.92%
N#Cc1cc2c(nc1SCC(=O)Nc1ccc(Cl)c(C(F)(F)F)c1)C1CCN2CC1	inactive: -20.2%
CC1=C(C(=O)O)N2C(=O)[C@@H](N)[C@H]2SC1	inactive: -10.9% [at 23.8 µM]
C[C@]12Cc3cn[nH]c3C[C@@H]1CC[C@@H]1[C@@H]2CC[C@@]2(C)[C@H]1CC[C@]2(C)O	inactive: -15.2%
CC(=O)N[C@H]1[C@H]([C@H](O)[C@H](O)CO)OC(C(=O)O)=C[C@@H]1N=C(N)N	inactive: -11.2%
Cc1ncsc1CCCl	inactive: -14.3%
O=C(Nc1ccccc1C(F)(F)F)c1cccn(Cc2ccccc2)c1=O	inactive: -8.99%
Cc1ccccc1-n1c(/C=C/c2ccccc2F)nc2ccccc2c1=O	inactive: -28.8%
O=C(COc1ccccc1[N+](=O)[O-])N1CCN(CCc2ccccn2)CC1	inactive: -8.87%
CN(C(=O)CSc1nc2ccc(NC(=O)COc3ccccc3)cc2s1)c1ccccc1	inactive: -31.3%

Compound	activation
C=C1CC[C@@]2(O)[C@H]3Cc4ccc(O)c5c4[C@@]2(CCN3CC2CC2)[C@H]1O5	inactive: -16.4%
Cc1ccc(-n2c(/C=C/c3cccc4ccccc34)nc3ccccc3c2=O)cc1	inactive: -19.5%
O=[N+]([O-])O[C@H]1CO[C@H]2[C@@H]1OC[C@H]2O[N+](=O)[O-]	inactive: -17.1%
O=C(CCCN1CCC2(CC1)C(=O)NCN2c1ccccc1)c1ccc(F)cc1	inactive: -23.7%
Nc1ccc(Cl)cc1N	inactive: -16.3% [at 114 µM]
COc1cccc(CN2C(=O)C3(SCC(=O)N3c3ccc(C)c(Cl)c3)c3ccccc32)c1 (stereo unspecified)	inactive: -39.3%
CCOC(=O)c1ccc(NC(=O)CSc2nc3c(cc2C#N)N2CCC3CC2)cc1	inactive: 4.68%
Cc1cccc(Cn2cccc(C(=O)Nc3nc4ccccc4s3)c2=O)c1	inactive: -9.54%
CCC(=O)C(CC(C)N(C)C)(c1ccccc1)c1ccccc1 (stereo unspecified)	inactive: -5.16% [at 114 µM]
COc1cccc(-n2c(/C=C/c3cccc(C)c3)nc3ccccc3c2=O)c1	inactive: -0.406%
NCC1(CC(=O)O)CCCCC1	inactive: -9.33%
Cc1cccc(-n2c(CC3C(=O)Nc4ccc(C)cc43)nc3ccccc3c2=O)c1 (stereo unspecified)	inactive: -8.59%
CCOc1ccc(CN(CCc2ccc3c(c2)OCO3)Cc2cc(OC)ccc2O)cc1	inactive: -7.16%
C=CCC1(C(C)CC)C(=O)NC(=O)NC1=O (stereo unspecified)	inactive: -15.6%
CO/C=C(/C(=O)OC)c1ccccc1Oc1cc(Oc2ccccc2C#N)ncn1	inactive: -4.31% [at 114 µM]
Cc1nnc2n1-c1sc(CCc3ccc(CC(C)C)cc3)cc1C(c1ccccc1Cl)=NC2C (stereo unspecified)	inactive: -13.6%
Nc1ccc(Sc2ccc(N)cc2)cc1	inactive: -3.25% [at 114 µM]
Cc1ccc(NC(=O)N(Cc2ccc3c(c2)OCO3)C2CCN(Cc3ccccc3)CC2)cc1C	inactive: -5.54%
